# Measurements published in the supplement of paper PMC3724861.
# This is one part of the list.
# Test system: T1, Caupolican (Caup) homeodomain DNA-binding domain
# T1 sequence: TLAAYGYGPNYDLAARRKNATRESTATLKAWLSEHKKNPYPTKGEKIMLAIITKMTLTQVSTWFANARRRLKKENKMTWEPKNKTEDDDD
# Experiment: PBM E-score (8-mer, recovered from the published 9-mer minima) (E-score (dimensionless, -0.5 to 0.5)); Drosophila protein; higher = stronger relative binding preference, active = 0.31 or more
# Outline: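 Caup's homeodomain DNA-binding domain (residues 214-303) was produced by in vitro transcription and translation and applied at 100 nM to custom-designed protein binding microarrays. Each value is an enrichment score giving relative binding preference for a short DNA word; higher means stronger. Published 9-mer scores were the minimum of their two constituent 8-mer scores, and the 8-mer values were recovered from those minima. A cutoff of 0.31 marks candidate binding sequences.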
row,Sequence,PBM E-score
1,AATACGAT,inactive: 0.166
2,ATACGCGA,inactive: 0.107
3,CAGTCTCG,inactive: -0.121
4,ATACAGGG,inactive: 0.164
5,CTCTACTA,inactive: 0.0272
6,CTGACCCC,inactive: -0.261
7,ACCGTTGA,inactive: -0.00014
8,AATCCTCT,inactive: -0.0947
9,ACCGTACT,inactive: 0.0878
10,CACTTCAG,inactive: 0.0111
11,ACACTTAT,inactive: 0.182
12,CTCAACAC,inactive: 0.131
13,GGTTGGGA,inactive: -0.118
14,CATATCGA,inactive: 0.102
15,CAGGCGGC,inactive: -0.253
16,CCACTCCC,inactive: -0.203
17,ATCTATAC,≥ 0.178
18,CGGCTTGC,inactive: -0.117
19,AACACAGC,inactive: 0.231
20,AACACAAG,inactive: 0.228
21,TGAAAACA,inactive: 0.214
22,AGAAAGCA,inactive: 0.0369
23,ACCCACCC,≥ -0.059
24,GGTAGTAC,inactive: 0.167
25,CTCCCGCA,inactive: -0.192

row,Sequence,PBM E-score
1,GACATCAA,inactive: 0.296
2,ATTCGAGA,≥ 0.043
3,AAGGTATG,inactive: 0.103
4,ACTTGTGA,≥ 0.205
5,AGTCCCTC,inactive: -0.146
6,GGAAGGAA,inactive: -0.112
7,CTCTCGGC,inactive: -0.224
8,AAGTGGGA,≥ 0.0343
9,CCTCAACC,inactive: -0.119
10,AGCTAGCC,inactive: -0.14
11,ACTCCGTC,inactive: -0.144
12,GCCCGAAC,inactive: -0.114
13,ATGCCAGC,inactive: -0.0947
14,CAGTCTCA,inactive: -0.042
15,GGGATCCC,inactive: -0.186
16,AGCATGAT,inactive: 0.197
17,AGGGCACA,inactive: 0.0145
18,AGACGTAG,inactive: -0.00632
19,ATGGACGC,inactive: -0.044
20,AGTAACAT,active: 0.316
21,ACCTACGC,inactive: -0.0531
22,AAGGCCGA,inactive: -0.0928
23,AAACGATC,inactive: 0.0157
24,GAATAGGC,inactive: -0.113
25,CGGCCTCC,inactive: -0.267

row,Sequence,PBM E-score
1,AGCTGACC,inactive: -0.0968
2,CGCGAACG,inactive: -0.0783
3,CATTTCAA,inactive: 0.154
4,GAGGCATA,inactive: -0.0213
5,GCTGGAAA,inactive: 0.0667
6,CTCGGCCC,inactive: -0.266
7,CTCCGATC,inactive: -0.156
8,ACTCACAG,inactive: -0.0137
9,AGGAATAG,≥ 0.104
10,AATCTCCG,inactive: -0.0947
11,TGCCTGAA,inactive: -0.0479
12,ACTGCCGG,inactive: -0.163
13,AAAGTATC,inactive: 0.0669
14,ATAAACCA,inactive: 0.0793
15,ATCGCCTC,inactive: -0.0677
16,AGCATTAC,inactive: 0.0828
17,ACTACTGA,inactive: 0.0932
18,GAAGGTGA,inactive: -0.0377
19,AAAACTTC,inactive: -0.0128
20,GGGATGAA,inactive: -0.11
21,AGTGCTTC,inactive: -0.0183
22,CCTAACTC,inactive: -0.0422
23,CAAACGTC,inactive: -0.0552
24,CTCTGCCA,inactive: -0.224
25,GCATACCC,inactive: -0.0402

row,Sequence,PBM E-score
1,CTCGGACA,inactive: 0.086
2,ATATTAAC,inactive: 0.133
3,ATAACAAC,active: 0.346
4,GCTCGTTA,inactive: 0.104
5,CTAATTGA,inactive: -0.00415
6,CCACAATA,inactive: -0.00725
7,AATGGCTC,inactive: -0.0437
8,CGTAGGCA,inactive: -0.114
9,ATTGTCTA,inactive: 0.194
10,ATCTGATA,inactive: 0.0604
11,GCAATCGC,inactive: -0.111
12,ATACCTCC,inactive: -0.0147
13,ACGCTCCA,inactive: -0.166
14,CCCGCCCG,inactive: -0.177
15,ACCTCCCC,inactive: -0.169
16,GCGGTAAA,inactive: 0.0541
17,ACAGGATA,inactive: 0.197
18,TCATACCA,inactive: 0.0931
19,AGATTGAA,inactive: 0.0897
20,TCTCCGAA,inactive: -0.0458
21,AACATACC,inactive: 0.303
22,CAGACTTA,inactive: 0.0309
23,CCTGACCA,inactive: -0.00358
24,GCTACAGA,inactive: 0.0623
25,CGCGGTAG,inactive: -0.115

row,Sequence,PBM E-score
1,GAACTGCA,inactive: -0.0108
2,GATATCAA,inactive: 0.122
3,CATGGGAG,inactive: -0.1
4,CAAGACTA,inactive: 0.107
5,GACTCCAA,inactive: -0.055
6,TGTGGCAA,inactive: -0.00688
7,ACACTGAA,inactive: 0.198
8,GCGACAAA,inactive: 0.0908
9,ATCTCAAA,inactive: 0.0536
10,AAATAGAG,inactive: 0.0477
11,CCAAGCTA,inactive: -0.0659
12,CGGGAACA,inactive: 0.176
13,GAAGAGTA,inactive: 0.0189
14,AACGACAG,inactive: 0.164
15,GACGCCAA,inactive: -0.148
16,TAGCCGGA,inactive: -0.154
17,GGGCAAAC,inactive: -0.079
18,CCCAGAAA,inactive: -0.0281
19,AGTTGTGG,inactive: 0.0797
20,ACCAAGCC,inactive: -0.0761
21,AAGGCTAC,inactive: -0.0541
22,CGTTCTGC,inactive: -0.104
23,ACGTGTGG,inactive: 0.0393
24,CTCGGCAC,inactive: -0.192
25,CTACACCA,inactive: 0.212

row,Sequence,PBM E-score
1,ATTCACCA,inactive: -0.00503
2,CTTGTACA,active: 0.44
3,ACACGTCT,inactive: 0.203
4,AAACGAGC,inactive: 0.0966
5,CCAACATC,inactive: 0.113
6,CCTGAGCC,inactive: -0.224
7,ACATGGTC,inactive: 0.285
8,AAACCGCT,inactive: -0.0895
9,AATCTAAG,inactive: 0.0545
10,TCTTGGCA,inactive: -0.0494
11,AGTTTAAT,inactive: 0.11
12,CGCCTGGC,inactive: -0.214
13,ACAAGACG,inactive: 0.257
14,GAGCACCA,inactive: -0.0535
15,CACACGTG,inactive: 0.148
16,CCGCCAAG,inactive: -0.177
17,CATCCGTA,inactive: 0.0622
18,CAAGACTG,inactive: 0.144
19,GATCAAGC,inactive: 0.0472
20,AGGGGTGG,inactive: -0.154
21,GGAAAGCA,inactive: 0.014
22,CTGGTGAC,inactive: -0.112
23,CAGATTGA,inactive: 0.0257
24,GGTGGAGA,inactive: -0.232
25,CAATAGTG,inactive: 0.019

row,Sequence,PBM E-score
1,ATCTAGTG,inactive: 0.0489
2,AGTAAGGG,inactive: -0.0567
3,TGTCGAAA,inactive: 0.222
4,CGAACTGC,inactive: -0.0462
5,CGACTTAA,≥ 0.0731
6,GGCAATAA,inactive: 0.0723
7,CTCCTGCC,inactive: -0.112
8,AGAAACTG,inactive: 0.0017
9,GATGCGAA,inactive: 0.0257
10,ATGTATCC,active: 0.332
11,GCACAATA,inactive: 0.0168
12,ATTGGAAG,inactive: -0.0555
13,ACCCTGCC,inactive: -0.244
14,GGCTCGCA,inactive: -0.153
15,AGGAATAA,≥ 0.104
16,ACAAATCT,inactive: 0.204
17,ATACCATG,inactive: 0.174
18,ACCTAAGA,inactive: 0.00757
19,CCGATTTA,inactive: -0.0491
20,CTCATTGA,inactive: 0.0245
21,AAGACCAC,inactive: -0.0559
22,AACTCGAT,inactive: 0.12
23,CAGAGTGA,inactive: 0.0283
24,ACACTCCG,inactive: 0.0179
25,AGGATGGC,inactive: -0.13

row,Sequence,PBM E-score
1,ATAAGATA,inactive: 0.144
2,CAGTGTGC,inactive: -0.114
3,GTAGGCGA,inactive: -0.00406
4,AAACCGTT,inactive: 0.0731
5,AGCAGCTG,inactive: -0.0728
6,CGAGAGTA,inactive: 0.0274
7,CGACAGTC,inactive: -0.0327
8,AGTATAAG,inactive: 0.0772
9,CCAGAGAG,inactive: -0.172
10,CGCTGGCC,inactive: -0.289
11,GTAGCCAA,inactive: 0.00468
12,AATAGGAA,inactive: 0.0557
13,CCGCTATA,inactive: -0.0672
14,TGCCGAAA,inactive: -0.0384
15,AATCACCG,inactive: 0.0868
16,AGAGGTTA,inactive: -0.0109
17,ACGTGGGA,inactive: -0.0931
18,GTACTCAA,inactive: 0.0872
19,AATTCGAT,inactive: 0.0966
20,AGGCTATC,inactive: -0.0452
21,CCAGACGG,inactive: -0.238
22,ACAACTCA,inactive: 0.227
23,ATTGGAGA,inactive: -0.114
24,AATTGGAA,inactive: 0.0631
25,CGGTGCGA,inactive: -0.14

row,Sequence,PBM E-score
1,CGATGCCC,inactive: -0.137
2,AACAGGGT,inactive: 0.0716
3,CCCCTGCC,inactive: -0.265
4,ATGGATAG,inactive: -0.0669
5,AGTTGCGC,inactive: -0.06
6,ATAGACAA,inactive: 0.275
7,CACGAGTA,inactive: 0.101
8,AACTACTG,inactive: 0.096
9,GGGGACAA,inactive: 0.057
10,GAATACGA,inactive: 0.136
11,TCACATGA,inactive: 0.182
12,AAGTAACG,inactive: 0.0695
13,GGGGGGGA,inactive: -0.398
14,AAGTTAGT,inactive: 0.0752
15,GGGGGTAA,inactive: -0.208
16,AGGCGTTC,inactive: -0.119
17,GTATGAAA,inactive: 0.145
18,TATAGACA,inactive: 0.298
19,ATTCGAGC,inactive: -0.0541
20,GGATTGAA,inactive: -0.00464
21,GATGAGGA,inactive: -0.0442
22,ACGTTTAT,inactive: 0.0633
23,AGCAGACG,inactive: -0.128
24,GTCTTTGA,inactive: -0.0404
